The record followed here is PMC12040169 (PLOS Biology, 2025).

The list shows a part of the results.

The assay relates to T1, C. trachomatis L2/434/Bu expressing GFP (CTL2-GFP).
T1 construct: L2/434/Bu GFP intracellular growth in HeLa cells
Also noted: species or system HeLa; C. trachomatis total inclusion area by high-content imaging, normalised to DMSO. The following applies: total inclusion area; 28.5 h, 10 µM; inhibitor. An outline of the steps: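 Imaging read-out: GFP inclusions and Hoechst nuclei captured by high-content imaging after fixation. Inclusion area/number = chlamydial growth; nuclei count = host cell viability. MIC calculated per earlier method.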
For `COc1ccc(F)c(CN2CCC3(CCCNC3=O)CC2)c1` [CBK284827], the “% of control remaining” value turned out to be 75.3792.

`CCCCn1nc(C2CC2)nc1-c1cnn2cc(C)cnc12` [CBK306683]: the “% of control remaining” value is reported as 62.6081.

Consider `C[C@H](Nc1cncc(-c2cccc(CO)c2)n1)c1ccccc1` [CBK065512], for which the “% of control remaining” value came to 145.165. In the case of `CC(C)c1noc(C(C)N2CCN(Cc3noc(C(C)(C)C)n3)CC2)n1` (stereo not drawn) [CBK305202], the “% of control remaining” value was determined as 67.9262. Next, `COc1ccc2c(c1)C1(CC(=O)N(Cc3ccccc3)C1=O)C(=O)N2CC(=O)O` (stereo not drawn) [CBK076108]: 103.256; `CNC(=O)C1(Cc2ccccc2-c2ccccc2)CCN(C(=O)Cc2cccc(C)c2)CC1` [CBK285594]: 111.5. Then `O=C(NCC1CCCN1)c1cnn(-c2ccc(Cl)cc2)c1C(F)(F)F` (stereo not drawn) [CBK115925C], with 99.454. As to `C[C@@H]1CN(C(=O)c2cn(C)c3ccccc23)C[C@H](C)O1` [CBK200235], the “% of control remaining” value worked out at 103.276. Then `C=CCN1CCc2cc(-c3cncn3CC(=O)NC(C)(C)C)ccc21` [CBK281923], with 108.202; and `O=[N+]([O-])c1ccc(S(=O)(=O)NCCSCc2ccco2)cc1` [CBK267503], with 81.4391; and `CS(=O)(=O)c1ccc(-c2c[nH]c([C@@H]3COCCN3Cc3c[nH]c4ccccc34)n2)cc1` [CBK289321], with 118.669. Then `CC(=O)N1C[C@@H]2C[C@H](C1)c1ccc(NS(=O)(=O)c3cccc(F)c3)c(=O)n1C2` [CBK288710], with 74.2045; and `COc1ccc(-n2cc(-c3cccc(C(F)(F)F)c3)nn2)cc1OC` [CBK112933], with 80.8355; and `CCOc1cc(C)c(-c2cc(N)[nH]n2)cc1OCC` [CBK288216], with 96.6697. Then `O=C(/C=C/c1ccc([N+](=O)[O-])cc1)Nc1ccc(O)cc1C(=O)O` [CBK263613], with 106.29; and `COc1ccc(NS(=O)(=O)c2ccc(NC(=S)NC(=O)C(C)(C)C)cc2)cc1` [CBK268990], with 51.4833. As to `COc1ccc(OCCNC(=O)C2(c3ccc(OC)cc3)CC2)cc1` [CBK149821], the “% of control remaining” value is recorded as 46.3529. Next, `CN(C)CCN(C)[C@H]1CCCC[C@@H]1N(C)C(=O)Cc1ccc(Br)cc1` [CBK023819C]: 44.5299; `Oc1c(C(Nc2cccnc2)c2ccccc2OCc2ccccc2)ccc2cccnc12` (stereo not drawn) [CBK268587]: 27.0592; `O=C(Nc1nnc(C2=COCCO2)o1)c1ccc(Cl)cc1Cl` [CBK287419]: 74.7566. Next, `CCOc1ccsc1C(=O)N1CCc2ccccc2C1` [CBK200339]: 104.809; `COc1ccccc1OCc1ccc(C(=O)N2CCN(c3cccc(C(F)(F)F)c3)CC2)o1` [CBK074417]: 74.7772; `O=C(NCCN1CCCC1)c1ccc(N2CCN(C(=O)c3ccccc3C(F)(F)F)CC2)nn1` [CBK153217]: 71.232. On to `Cc1cc(C)n(CC(C)CNC(=O)Cc2csc(C(C)(C)C)n2)n1` (stereo not drawn) [CBK305340], for which the “% of control remaining” value is recorded as 37.2532. Then `COc1cc2c(cc1-c1cn(CCN3CCCOC3=O)nn1)CCC2` [CBK306515], with 63.9441. Then `COc1cc(/C=N\Nc2nnc3c(n2)[nH]c2c(C)cccc23)cc(Br)c1O` [CBK262375], with 100.061; and `CCNC1(Cc2cc(C(=O)N3CCCCC3)on2)COC1` [CBK289671], with 100.651. Next, `Cc1ccc(NC(=O)c2cnc3sc(C)cn3c2=O)cc1` [CBK287711]: 91.6788; `CC(NC(=O)C1CCN(CCn2cnc3c2c(=O)n(C)c(=O)n3C)CC1)c1ccccc1` (stereo not drawn) [CBK148624]: 107.425; `CC1Oc2ccccc2OC1C(=O)Nc1ccc([N+](=O)[O-])cc1Cl` (stereo not drawn) [CBK269412]: 54.2951.

As for `CSCCCN1C(=O)CN(Cc2ccccc2)C1=O` [CBK162363], the “% of control remaining” value is 56.6834. Next, `COCc1cc(C)n(CC(=O)Nc2ccc(N3CCOCC3)cc2)c(=O)c1C#N` [CBK270190]: 118.408; `COc1ccc([C@@]23CC[C@H](NC(=O)CS(=O)(=O)c4ccccc4)C[C@@H]2N(C)CC3)cc1OC` [CBK036445]: 98.6581. Next, `COc1cnc(-c2cccc(C(=O)N(C)C)c2)c(NC(=O)c2ccccc2)n1` [CBK145385]: 97.6604. Regarding `Cc1ccc2c(c1)CCN(S(C)(=O)=O)C21CCN(CCCOc2ccccc2)CC1` [CBK081066], the “% of control remaining” value came to 66.9231. Next, `O=C(O)c1ccc(CNC(=O)c2ccc3c(c2)C(=O)N(CC2CCCO2)C3=O)cc1` (stereo not drawn) [CBK264256]: 119.198. Then `COC(C)CN(C)Cc1c(C)[nH]c2ccc(F)cc12` (stereo not drawn) [CBK282035], with 96.4647; and `COc1cc(F)cc(OC2CCNCC2)c1NC(=O)c1coc2c1C(=O)CCC2` [CBK050351T], with 90.1627. Take `CC(C)Cc1ccc(S(=O)(=O)Nc2ccc3[nH]c(=O)[nH]c3c2)cc1` [CBK270131]: the “% of control remaining” value came out at 82.9678. Then `Cc1nc2c([N+](=O)[O-])c3c(c([N+](=O)[O-])c2[nH]1)Nc1nonc1N3` [CBK261069], with 98.3925; and `CC(C)(CO)CCCn1cncc1-c1cnn(-c2ccccc2)c1` [CBK281922], with 83.3862; and `CC1CC(C)CN(Cc2csc(NC(=O)Cc3ccc(Cl)cc3)n2)C1` (stereo not drawn) [CBK306142], with 32.0557.

As to `COc1ccc(-c2cc(C(=O)Nc3ccc(F)c(Cl)c3)cnc2-c2cccc(C)c2)cc1` [CBK037488], the “% of control remaining” value was found to be 74.9706.

In the case of `CCC1CCCCN1C(=O)c1nc2ccccc2s1` (stereo not drawn) [CBK076645], the “% of control remaining” value came to 106.689.

As for `CCN1C(=O)CC2(C1=O)C(=O)N(CCc1cccs1)c1ccc(Cl)cc12` (stereo not drawn) [CBK075614], the “% of control remaining” value is listed as 75.8207. Next, `CCCCNc1cc(N2CCN(C(=O)COC)CC2)nc(N)n1` [CBK304078]: 47.8966. With `Fc1ccccc1COc1cccc(CNCCN2CCOCC2)c1` [CBK278148C], the “% of control remaining” value was determined as 92.3773. Next, `CC(=O)Nc1ccc(NCc2csc(C3CCCO3)n2)c(C(F)(F)F)c1` (stereo not drawn) [CBK304161]: 62.9838; `COc1ccc(NC(=O)CSc2ncnc3c2oc2ccccc23)c(OC)c1` [CBK287395]: 99.4156; `CC1=NN(c2ccc(Cl)cc2)C(=O)/C1=C\Nc1nnn[nH]1` [CBK262407]: 109.963. Then `CC(=O)Nc1cccc(-c2nccnc2N[C@H](CO)C(C)C)c1` [CBK036611], with 139.363; and `C(#Cc1csc(COc2cncc(N3CCNCC3)n2)c1)c1ccccc1` [CBK200006G], with 99.899; and `CC(C)c1ccc(/C=C/C(=O)NCCC(N)=O)cc1` [CBK149646], with 92.7075. Regarding `Cc1nnc(Nc2ccc3c(c2)nc2n3CCN(C3CCCCC3)C2)c2ccccc12` [CBK268042], the “% of control remaining” value is on record as 118.438. With `C=CCn1c2cc(C)sc2c2cnn(CC(=O)NC(C)C)c(=O)c21` [CBK284150], the “% of control remaining” value turned out to be 83.7108. For `Cc1cc(COc2ncccc2C(F)(F)F)no1` [CBK115783], the “% of control remaining” value is 100.784. Next, `O=C(Nc1ccc(N2CCNCC2)c2ccccc12)c1cccnc1` [CBK036336T]: 90.9665. Next, `COCCCN1C(=O)C(O)=C(C(=O)c2ccc(C)o2)C1c1ccc(OC)cc1` (stereo not drawn) [CBK264863]: 116.623; `COc1ccc(N2C(=O)CC(N3CCN(C4CC(=O)N(c5ccc(OC)cc5)C4=O)CC3)C2=O)cc1` (stereo not drawn) [CBK260907]: 97.1412. On to `COC(=O)[C@H]1CCc2ccccc2N1C(=O)C(C)C` [CBK285474], for which the “% of control remaining” value worked out at 58.6491. In the case of `O=C1N[C@@H]2CCN(C(=O)CCn3ccccc3=O)C[C@@H]2CCCCCOc2ccccc21` [CBK292039], the “% of control remaining” value came to 109.478.

As for `CCN1CCC(CC(=O)NCCn2ccnc2C)CC1` [CBK281984], the “% of control remaining” value is 88.7882. Consider `C[C@@H]1C[C@H](C)CN(C(C(=O)O)c2c[nH]c3ccccc23)C1` (stereo partly drawn) [CBK286868], for which the “% of control remaining” value is recorded as 78.9614. Then `Cc1ccc(-c2nc3ncccc3o2)cc1NC(=O)c1ccc(-c2cccc([N+](=O)[O-])c2)o1` [CBK268548], with 116.794; and `CC(C)(C)OC(=O)N1CCC(Oc2ccccc2C#N)C1` (stereo not drawn) [CBK003039], with 92.2348; and `CN1C(=O)COc2ccccc2CCCC[C@@H]2[C@H]1CCCN2C(=O)CCCn1cncn1` [CBK292182], with 127.066. Then `O=C(c1ccc2[nH]c(=O)[nH]c2c1)N1CCCC2(CCN(Cc3ccccc3)C2)C1` (stereo not drawn) [CBK137149], with 83.8844; and `Cc1cc(=O)[nH]c2c1c(=O)[nH]n2C1CCCCCC1` [CBK288381], with 73.0957; and `Cc1ccc(C(=O)NCCNS(=O)(=O)c2ccccc2)cc1` [CBK264145], with 118.908. Then `CC(C)c1csc(NC(=O)C2CN(S(=O)(=O)c3ccc(F)cc3)C2)n1` [CBK285944], with 93.6792; and `Cc1nn(Cc2cccc3ccccc23)c(C)c1NC(=O)c1ccccn1` [CBK269936], with 95.8357; and `CCCCc1c(O)[nH]c2nc3ccccc3n2c1=O` [CBK287875], with 97.6194.

As to `CCC1c2cccn2CCN1Cc1cncn1CC` (stereo not drawn) [CBK283012], the “% of control remaining” value worked out at 79.3365. Then `CCN(CC)C(=O)CC1SC(NCC2CCCCC2)=NC1=O` (stereo not drawn) [CBK067923], with 72.113; and `COc1ccc(C(C)C)cc1-c1cnc2nc(NS(C)(=O)=O)ccc2c1` [CBK085672], with 96.1358.

Take `c1ccc(CCn2nnnc2CN2CCN(c3ccccc3)CC2)cc1` [CBK069271]: the “% of control remaining” value was found to be 80.6436.

For the compound `O=C(c1ccco1)c1coc2ccc(O)cc12` [CBK115570], the “% of control remaining” value is 108.842. Then `Oc1cccc(-c2cc(CC3(NCc4ccc(F)cc4)COC3)no2)c1` [CBK289646], with 106.239.
